Reference: ChEMBL document CHEMBL1135086

System: O=[N+]([O-])c1ccc(O)c(O)c1
Assay: Effect on the Kinetic parameters of L-citrulline formation from L-arginine catalyzed by neuronal nitric oxide synthase determined at 100 uM

Nitric oxide synthase 1 (Rattus norvegicus) (no sequence given)
Km: 16 µM | Vmax (uM min-1 mg-1): 0.57
